Data: article PMC9911399, “Two distinct binding modes provide the RNA-binding protein RbFox with extraordinary sequence specificity”
Changes are numbered by the printed parent chain; changes in the protein carry UniProt numbers. Some of the results follow.

T1: RBFOX1 RRM (Homo sapiens, UniProt Q9NWB1 109-208)
T1 sequence: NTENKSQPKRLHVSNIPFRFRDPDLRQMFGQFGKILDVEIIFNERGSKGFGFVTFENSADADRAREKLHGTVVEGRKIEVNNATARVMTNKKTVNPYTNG

B1: GACGCUC (DNA:RNA)
RNA: GGGAGACCGGAAUUCAGAUUGUCCGACGCUCUUAAAUCCCGUCGUAGCCACCA
DNA 1: CAATCTGAATTCCGGTCTCCC
DNA 2: TGGTGGCTACGACGGGATT
B2: CAGGGUC (DNA:RNA)
RNA: B1 RNA with G25C, C27G, C29G
DNA 1: CAATCTGAATTCCGGTCTCCC
DNA 2: TGGTGGCTACGACGGGATT
B3: CCAGCGG (DNA:RNA)
RNA: B1 RNA with G25C, A26C, C27A, U30G, C31G
DNA 1: CAATCTGAATTCCGGTCTCCC
DNA 2: TGGTGGCTACGACGGGATT
B4: GAAUGGA (DNA:RNA)
RNA: B1 RNA with C27A, G28U, C29G, U30G, C31A
DNA 1: CAATCTGAATTCCGGTCTCCC
DNA 2: TGGTGGCTACGACGGGATT
B5: CGUCCGU (DNA:RNA)
RNA: B1 RNA with G25C, A26G, C27U, G28C, U30G, C31U
DNA 1: CAATCTGAATTCCGGTCTCCC
DNA 2: TGGTGGCTACGACGGGATT
B6: CUACGGC (DNA:RNA)
RNA: B1 RNA with G25C, A26U, C27A, G28C, C29G, U30G
DNA 1: CAATCTGAATTCCGGTCTCCC
DNA 2: TGGTGGCTACGACGGGATT
B7: AUUGACA (DNA:RNA)
RNA: B1 RNA with G25A, A26U, C27U, C29A, U30C, C31A
DNA 1: CAATCTGAATTCCGGTCTCCC
DNA 2: TGGTGGCTACGACGGGATT
B8: CCGGCAU (DNA:RNA)
RNA: B1 RNA with G25C, A26C, C27G, U30A, C31U
DNA 1: CAATCTGAATTCCGGTCTCCC
DNA 2: TGGTGGCTACGACGGGATT
B9: UUCGCAU (DNA:RNA)
RNA: B1 RNA with G25U, A26U, U30A, C31U
DNA 1: CAATCTGAATTCCGGTCTCCC
DNA 2: TGGTGGCTACGACGGGATT
B10: UGUUCAA (DNA:RNA)
RNA: B1 RNA with G25U, A26G, C27U, G28U, U30A, C31A
DNA 1: CAATCTGAATTCCGGTCTCCC
DNA 2: TGGTGGCTACGACGGGATT
B11: ACUCCAC (DNA:RNA)
RNA: B1 RNA with G25A, A26C, C27U, G28C, U30A
DNA 1: CAATCTGAATTCCGGTCTCCC
DNA 2: TGGTGGCTACGACGGGATT
B12: AGGCCAA (DNA:RNA)
RNA: B1 RNA with G25A, A26G, C27G, G28C, U30A, C31A
DNA 1: CAATCTGAATTCCGGTCTCCC
DNA 2: TGGTGGCTACGACGGGATT
B13: GCUCCUG (DNA:RNA)
RNA: B1 RNA with A26C, C27U, G28C, C31G
DNA 1: CAATCTGAATTCCGGTCTCCC
DNA 2: TGGTGGCTACGACGGGATT
B14: AGGCCUC (DNA:RNA)
RNA: B1 RNA with G25A, A26G, C27G, G28C
DNA 1: CAATCTGAATTCCGGTCTCCC
DNA 2: TGGTGGCTACGACGGGATT
B15: CAGUCUC (DNA:RNA)
RNA: B1 RNA with G25C, C27G, G28U
DNA 1: CAATCTGAATTCCGGTCTCCC
DNA 2: TGGTGGCTACGACGGGATT
B16: GGACGAA (DNA:RNA)
RNA: B1 RNA with A26G, C27A, G28C, C29G, U30A, C31A
DNA 1: CAATCTGAATTCCGGTCTCCC
DNA 2: TGGTGGCTACGACGGGATT
B17: UCCUGGU (DNA:RNA)
RNA: B1 RNA with G25U, A26C, G28U, C29G, U30G, C31U
DNA 1: CAATCTGAATTCCGGTCTCCC
DNA 2: TGGTGGCTACGACGGGATT
B18: ACGGUCA (DNA:RNA)
RNA: B1 RNA with G25A, A26C, C27G, C29U, U30C, C31A
DNA 1: CAATCTGAATTCCGGTCTCCC
DNA 2: TGGTGGCTACGACGGGATT
B19: GAGAUAC (DNA:RNA)
RNA: B1 RNA with C27G, G28A, C29U, U30A
DNA 1: CAATCTGAATTCCGGTCTCCC
DNA 2: TGGTGGCTACGACGGGATT
B20: UUAGCCG (DNA:RNA)
RNA: B1 RNA with G25U, A26U, C27A, U30C, C31G
DNA 1: CAATCTGAATTCCGGTCTCCC
DNA 2: TGGTGGCTACGACGGGATT
B21: GUACUUC (DNA:RNA)
RNA: B1 RNA with A26U, C27A, G28C, C29U
DNA 1: CAATCTGAATTCCGGTCTCCC
DNA 2: TGGTGGCTACGACGGGATT
B22: UUCCGCG (DNA:RNA)
RNA: B1 RNA with G25U, A26U, G28C, C29G, U30C, C31G
DNA 1: CAATCTGAATTCCGGTCTCCC
DNA 2: TGGTGGCTACGACGGGATT
B23: GACGCCA (DNA:RNA)
RNA: B1 RNA with U30C, C31A
DNA 1: CAATCTGAATTCCGGTCTCCC
DNA 2: TGGTGGCTACGACGGGATT
B24: AUCAUUU (DNA:RNA)
RNA: B1 RNA with G25A, A26U, G28A, C29U, C31U
DNA 1: CAATCTGAATTCCGGTCTCCC
DNA 2: TGGTGGCTACGACGGGATT
B25: CGAGGCG (DNA:RNA)
RNA: B1 RNA with G25C, A26G, C27A, C29G, U30C, C31G
DNA 1: CAATCTGAATTCCGGTCTCCC
DNA 2: TGGTGGCTACGACGGGATT
B26: UUCACUC (DNA:RNA)
RNA: B1 RNA with G25U, A26U, G28A
DNA 1: CAATCTGAATTCCGGTCTCCC
DNA 2: TGGTGGCTACGACGGGATT
B27: CUGCUUC (DNA:RNA)
RNA: B1 RNA with G25C, A26U, C27G, G28C, C29U
DNA 1: CAATCTGAATTCCGGTCTCCC
DNA 2: TGGTGGCTACGACGGGATT
B28: CGAAGUU (DNA:RNA)
RNA: B1 RNA with G25C, A26G, C27A, G28A, C29G, C31U
DNA 1: CAATCTGAATTCCGGTCTCCC
DNA 2: TGGTGGCTACGACGGGATT
B29: GAAAUCU (DNA:RNA)
RNA: B1 RNA with C27A, G28A, C29U, U30C, C31U
DNA 1: CAATCTGAATTCCGGTCTCCC
DNA 2: TGGTGGCTACGACGGGATT
B30: GGCACAA (DNA:RNA)
RNA: B1 RNA with A26G, G28A, U30A, C31A
DNA 1: CAATCTGAATTCCGGTCTCCC
DNA 2: TGGTGGCTACGACGGGATT
B31: AGGCGUG (DNA:RNA)
RNA: B1 RNA with G25A, A26G, C27G, G28C, C29G, C31G
DNA 1: CAATCTGAATTCCGGTCTCCC
DNA 2: TGGTGGCTACGACGGGATT

Target: T1, RBFOX1 RRM
Experiment: EMSA; HiTS-Eq, 1 nM pool, 10 min; buffer printed only for the single-RNA assays: 10 mM Tris pH 7.5, 150 mM NaCl, 3.4 mM EDTA, 0.001% NP-40, 30 C
Details: tags: His6 N-terminal (pET28a); label: 5' 32P
Summary of the method: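 Relative association constants, normalised to the cognate motif, were derived by comparing read counts of each RNA species with those of the control reaction. The RNA sequenced was the free fraction, separated by 8% native PAGE after a 10 min equilibration in 50 µL of 1 nM 5′-radiolabelled RNA (7 randomized nucleotides) with increasing concentrations of purified wild-type or mutant RbFox RRM.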

Row | Binder | binding signal
1 | B1 | 0.0143 KA relative to UGCAUGU
2 | B2 | 0.0191 KA relative to UGCAUGU
3 | B3 | 0.00459 KA relative to UGCAUGU
4 | B4 | 0.00719 KA relative to UGCAUGU
5 | B5 | 0.0125 KA relative to UGCAUGU
6 | B6 | 0.00852 KA relative to UGCAUGU
7 | B7 | 0.00454 KA relative to UGCAUGU
8 | B8 | 0.013 KA relative to UGCAUGU
9 | B9 | 0.0146 KA relative to UGCAUGU
10 | B10 | 0.0169 KA relative to UGCAUGU
11 | B11 | 0.0042 KA relative to UGCAUGU
12 | B12 | 0.00417 KA relative to UGCAUGU
13 | B13 | 0.0135 KA relative to UGCAUGU
14 | B14 | 0.00929 KA relative to UGCAUGU
15 | B15 | 0.00835 KA relative to UGCAUGU
16 | B16 | 0.0191 KA relative to UGCAUGU

Row | Binder | binding signal
17 | B17 | 0.0147 KA relative to UGCAUGU
18 | B18 | 0.00956 KA relative to UGCAUGU
19 | B19 | 0.00794 KA relative to UGCAUGU
20 | B20 | 0.00941 KA relative to UGCAUGU
21 | B21 | 0.00753 KA relative to UGCAUGU
22 | B22 | 0.0101 KA relative to UGCAUGU
23 | B23 | 0.00741 KA relative to UGCAUGU
24 | B24 | 0.00187 KA relative to UGCAUGU
25 | B25 | 0.0152 KA relative to UGCAUGU
26 | B26 | 0.00506 KA relative to UGCAUGU
27 | B27 | 0.0207 KA relative to UGCAUGU
28 | B28 | 0.0104 KA relative to UGCAUGU
29 | B29 | 0.00861 KA relative to UGCAUGU
30 | B30 | 0.0039 KA relative to UGCAUGU
31 | B31 | 0.0157 KA relative to UGCAUGU
